Experimental data: the supplement of paper PMC11417369
The list shows a part of the results.

System: PF3D7_0420300 AP2 domain 1 (GST-tagged)
Assay: gcPBM binding intensity (ln(normalized median fluorescence intensity)); higher = stronger DNA binding
How it was run: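 Binding intensity is defined as the maximum Masliner-normalised natural-log median intensity across replicate spots for either probe orientation. It was measured on an Agilent 4 × 180k array of primer-extended double-stranded 36-bp intergenic genomic probes and negative controls, to which GST-tagged P. falciparum DNA-binding domains made in E. coli were applied for 1 h in 1× PBS with 1% milk, 0.2 mg/ml BSA, 0.5% salmon testes DNA and 0.03% Triton X-100. Detection was by Alexa488 anti-GST antibody and scanning at 488 nm.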

Sequence	gcPBM binding intensity (ln)
ATTCAAAAAAATAAAATAAACATAAATAAACATAAA [TGCATGCA_negctrl_site390]	9.24
ATTTCCCACTTGTGTGTGCGCATGTGTATATATTTA [GTGCAC_site9949]	9.89
TACATATATATAATATGTACTTATAATATGTATTTA [XGTACX_site2162]	9.13
TTATTTGTTTGTTGGATGCTTTTTTTTTTTTTTTTT [CACACA_negctrl_site1697]	9.5
AAAAGTGATAATAAGAGTACATAAAAAATTTATTAT [XGTACX_site8037]	9.34
TATTCTATACTATATTGTACTATAATATAATATACT [XGTACX_site797]	9.27
AAATAATTTATAAATAAATACATTGTTACTTTTTCT [GTGCAC_negctrl_site639]	9.16
TATGTGTATTTATTTGCATGTTGGTTGTATTTTTTC [TGCATGCA_site479]	9.92
TCTTCATATGTTTACTGTACGAGAAAAAAAAAAAAA [XGTACX_site6418]	8.88
TAATAAAATAAAAATTGTACATTTTATATTTATCAA [XGTACX_site5134]	8.91
AATGAAAAAAAAAAAAAAAAGAAGAAGCAAATGGTA [TGCATGCA_negctrl_site335]	9.58
AGATTATTTGGACATGCATGTAAAAAAATACGTATA [TGCATGCA_site972]	9.23
ATAAATAATTATATATGTACACATTATGAATGGATA [XGTACX_site8336]	9.37
TAAAAAAATTCATGCACACGAAATAAAAAGCACCTT [CACACA_site4667]	9.55
TTTTCATTTTTTCGTTGTACATAAATAATATATATT [XGTACX_site856]	9.4
AATACATACATACATACACACATATATATATATTAT [CACACA_site3575]	9.82
AAACATAAATTTTATTGTACATTATATAGAATTTTC [XGTACX_site576]	8.95
TTTTTTAAAAGATAATATTTTATTAATGTATTCTCA [GTGCAC_negctrl_site598]	8.9
TTTTACTATACTTATGCACACAAGATATATACATAT [CACACA_site2968]	9.42

Sequence	gcPBM binding intensity (ln)
ACTAATTACTATAAAACACACATATATTTATTTATA [CACACA_site7263]	9.42
CACATGTATTTATAGGTGCGTAAAAACACTTTATAT [GTGCAC_site9501]	9.26
TTATAGAAACATTGGTGTACGATATTTACTTCTTTC [XGTACX_site7314]	9.15
GGAATAGTCGGGTGCATACACACCTTAAATATAATA [CACACA_site1081]	9.21
AATCATATTAGTATGGTGCAATATATATATAAATAT [GTGCAC_site9800]	9.31
AAAGAAAATTCAATAGTGCATAAAAATATATATGTT [GTGCAC_site9680]	9.35
ATCATGAAATATATTTGTACACATAATAATATAATA [XGTACX_site8798]	9.29
ATTTGGCAGAAACACACACACACACCCACCCACATA [CACACA_site589]	10.4
TTTTTTTTTATAAATACACACGTACGGGTGCATAAC [CACACA_site8444]	9.03
TATTAAAAGGTGAGTACACACATATATGTGTATATA [CACACA_site7070]	9.64
ATATATATATATATATGTACACAGGACAATAATCCT [XGTACX_site6383]	9.33
TATCATCTTAATATCGTGCACATTTATAGAACGAAA [GTGCAC_site9992]	8.98
TTTTACTATACTTATGCACACAAGATAAATACATAT [CACACA_site5619]	9.37
ATACCTCAAATTGATACACACAAAAAAAGTAAATTA [CACACA_site3134]	9.63
CTATTTTAATATTTTACACACCATGTAAAATATATA [CACACA_site5732]	9.23
TATATATATATAACAACACACACAGATCATAAAACT [CACACA_site8670]	10.1
TATTTTTTTTCGTAATGTACATAAAAAATGCAAAAA [XGTACX_site8491]	8.84
ATTATATAATTTAATCGTACACAAATATTTGTTAGT [XGTACX_site5913]	9.19
TAAGTAATAGTTTGTGCACACTCAAGTATATCATAT [CACACA_site4035]	9.44

Sequence	gcPBM binding intensity (ln)
CCATAATTATATGCCAGTACATATTTGTAACAAAAA [XGTACX_site851]	9.07
TTTATTTTTCATTGGGGTACACAAGTTTATTTTATT [XGTACX_site4263]	9.39
CTTTTAAAAAAATTCATGCACACGAAATAAAAAGCA [CACACA_site929]	9.36
TATTATTCCATGTGAAGTACAGAAATATAAATAAAT [XGTACX_site5106]	9.34
CAAAATATTTTTATAACACACATATATAGAATGTGC [CACACA_site1145]	9.34
CTTATACAAAAAAAAAGTACATAACATAATAAGAAT [XGTACX_site6782]	9.76
TTATTTAAAAATAGCACACATTATATATATATATAT [CACACA_site5556]	9.24
ACAGATGATCAAAATTGTACAGAGTTATATTATATT [XGTACX_site4642]	9.3
GATAAACCATATATAACACACATATGAATATTGCAA [CACACA_site6735]	9.57
CACCCATACAGACATACACACACATATATATTAATA [CACACA_site8077]	9.87
ATATCATATATAAGTCGTACGATGAATAGAATTTTT [XGTACX_site7586]	9.2
TTTTTATTCGTTAAATGTACAAAAAAAATGTTATAT [XGTACX_site2804]	9.06
ATACACTAGAAAATTTTATAGTATTATTAATGTTAA [GTGCAC_negctrl_site101]	9.1
GCTTAGTTATATAACTGTACTATTTTTATTTATATG [XGTACX_site884]	9.65
ATAAAGTAAGAAGAAATAATGATTTTCATGGAAAAC [XGTACX_negctrl_site322]	9.33
AAATATAAGTAAATAAATAAATATATAAATATATAA [TGCATGCA_negctrl_site441]	9.21
AAATACATACATTAATGTACAAATAGAAACACTCTT [XGTACX_site1512]	9.53
AATAAGATAAGGAAAAGTACTTATAATTAAACTAAT [XGTACX_site1850]	9.38
